Measurements from the supplement of paper PMC8728848.
The other results are listed elsewhere or left out.

How the values were obtained:
Test in all cases: glycan array binding signal (z-score within array); higher = stronger binding
Conditions in all cases: glycan notation: IUPAC condensed, linker removed; mutation: R74S
[1] = molecular target: Neu5Ac(a2-6)Gal(b1-4)GlcNAc(b1-6)[Gal(b1-3)]GalNAc
Summary of the method: (§1)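 The binding signal is a Z-score computed within each array and averaged over linkers. Arrays of the same protein sequence at different concentrations or buffers were also averaged together. Data originate from 3228 arrays in the Consortium for Functional Glycomics database, kept only where the protein sequence was available.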

[2] = molecular target: Neu5Ac(a2-6)Gal(b1-4)GlcNAc6S
Summary of the method: as §1

[3] = molecular target: Neu5Ac(a2-6)GalNAc
Summary of the method: as §1

[4] = molecular target: Neu5Ac(a2-6)GalNAc(b1-4)GlcNAc
Summary of the method: as §1

[5] = molecular target: Neu5Ac(a2-6)GalNAc(b1-4)GlcNAc6S
Summary of the method: as §1

[6] = molecular target: Neu5Ac(a2-6)GlcNAc(b1-4)GlcNAc
Summary of the method: as §1

[7] = molecular target: Neu5Ac(a2-6)GlcNAc(b1-4)GlcNAc(b1-4)GlcNAc
Summary of the method: as §1

[8] = molecular target: Neu5Ac(a2-8)Neu5Ac
Summary of the method: as §1

[9] = molecular target: Neu5Ac(a2-8)Neu5Ac(a2-3)Gal(b1-3)GalNAc(b1-4)[Neu5Ac(a2-3)]Gal(b1-4)Glc
Summary of the method: as §1

[10] = molecular target: Neu5Ac(a2-8)Neu5Ac(a2-3)Gal(b1-3)GalNAc(b1-4)[Neu5Ac(a2-8)Neu5Ac(a2-3)]Gal(b1-4)Glc
Summary of the method: as §1

[11] = molecular target: Neu5Ac(a2-8)Neu5Ac(a2-3)Gal(b1-4)Glc
Summary of the method: as §1

[12] = molecular target: Neu5Ac(a2-8)Neu5Ac(a2-3)Gal(b1-4)GlcNAc
Summary of the method: as §1

[13] = molecular target: Neu5Ac(a2-8)Neu5Ac(a2-3)[Gal(b1-3)GalNAc(b1-4)]Gal(b1-4)Glc
Summary of the method: as §1

[14] = molecular target: Neu5Ac(a2-8)Neu5Ac(a2-3)[GalNAc(b1-4)]Gal(b1-4)Glc
Summary of the method: as §1

[15] = molecular target: Neu5Ac(a2-8)Neu5Ac(a2-8)Neu5Ac
Summary of the method: as §1

[16] = molecular target: Neu5Ac(a2-8)Neu5Ac(a2-8)Neu5Ac(a2-3)Gal(b1-4)Glc
Summary of the method: as §1

[17] = molecular target: Neu5Ac(a2-8)Neu5Ac(a2-8)Neu5Ac(a2-3)[Gal(b1-3)GalNAc(b1-4)]Gal(b1-4)Glc
Summary of the method: as §1

[18] = molecular target: Neu5Ac(a2-8)Neu5Ac(a2-8)Neu5Ac(a2-3)[GalNAc(b1-4)]Gal(b1-4)Glc
Summary of the method: as §1

[19] = molecular target: Neu5Ac(a2-8)Neu5Ac(a2-8)Neu5Ac(a2-8)Neu5Ac(a2-3)[GalNAc(b1-4)]Gal(b1-4)Glc
Summary of the method: as §1

[20] = molecular target: Neu5Ac(a2-8)Neu5Gc(a2-3)Gal(b1-4)GlcNAc
Summary of the method: as §1

[21] = molecular target: Neu5Ac(b2-6)Gal(b1-4)GlcNAc
Summary of the method: as §1

[22] = molecular target: Neu5Ac(b2-6)GalNAc
Summary of the method: as §1

[23] = molecular target: Neu5Ac9Ac(a2-3)Gal(b1-3)GlcNAc
Summary of the method: as §1

[24] = molecular target: Neu5Ac9Ac(a2-3)Gal(b1-4)GlcNAc
Summary of the method: as §1

[25] = molecular target: Neu5Ac9Ac(a2-6)Gal(b1-4)GlcNAc
Summary of the method: as §1

[26] = molecular target: Neu5Gc(a2-3)Gal(b1-3)GlcNAc
Summary of the method: as §1

[27] = molecular target: Neu5Gc(a2-3)Gal(b1-3)[Fuc(a1-4)]GlcNAc
Summary of the method: as §1

[28] = molecular target: Neu5Gc(a2-3)Gal(b1-4)Glc
Summary of the method: as §1

[29] = molecular target: Neu5Gc(a2-3)Gal(b1-4)GlcNAc
Summary of the method: as §1

[30] = molecular target: Neu5Gc(a2-3)Gal(b1-4)GlcNAc(b1-3)Gal(b1-4)GlcNAc(b1-2)Man(a1-3)[Neu5Gc(a2-3)Gal(b1-4)GlcNAc(b1-3)Gal(b1-4)GlcNAc(b1-2)Man(a1-6)]Man(b1-4)GlcNAc(b1-4)GlcNAc
Summary of the method: as §1

[31] = molecular target: Neu5Gc(a2-3)Gal(b1-4)[Fuc(a1-3)]GlcNAc
Summary of the method: as §1

[32] = molecular target: Neu5Gc(a2-6)Gal(b1-4)GlcNAc
Summary of the method: as §1

[33] = molecular target: Neu5Gc(a2-6)GalNAc
Summary of the method: as §1

[34] = molecular target: Neu5Gc(a2-8)Neu5Ac(a2-3)Gal(b1-4)GlcNAc
Summary of the method: as §1

[35] = molecular target: Neu5Gc(a2-8)Neu5Gc(a2-3)Gal(b1-4)GlcNAc
Summary of the method: as §1

[36] = molecular target: Neu5Gc(a2-8)Neu5Gc(a2-3)Gal(b1-4)GlcNAc(b1-3)Gal(b1-4)GlcNAc
Summary of the method: as §1

[37] = molecular target: Neu5Gc(a2-8)Neu5Gc(a2-6)Gal(b1-4)GlcNAc
Summary of the method: as §1

[38] = molecular target: Neu5Gc(b2-6)Gal(b1-4)GlcNAc
Summary of the method: as §1

B1: Gal 7 (Homo sapiens) (protein)
chain: MSNVPHKSSLPEGIRPGTVLRIRGLVPPNASRFHVNLLCGEEGGSDAALHFNPRLDTSEVVFNSKEGGSWGREESGPGVPFGRGQPFEVLIIASDDGFKAVVGDAQYHHFRHRLPLARVRLVEVGGDVQLDSVRIF
Question: How did the “glycan array binding signal (z-score)” value [1] turn out when B1 was run?
Answer: -0.433

Question: And the “glycan array binding signal (z-score)” value [2]?
Answer: -0.194

Question: What about the “glycan array binding signal (z-score)” value [3] of the same binder?
Answer: -0.343

Question: What about the “glycan array binding signal (z-score)” value [4] of the same binder?
Answer: -0.703

Question: What about the “glycan array binding signal (z-score)” value [5] of the same binder?
Answer: -0.203

Question: And the “glycan array binding signal (z-score)” value [6]?
Answer: -0.42

Question: And the “glycan array binding signal (z-score)” value [7]?
Answer: -0.32

Question: What about the “glycan array binding signal (z-score)” value [8] of the same binder?
Answer: -0.502

Question: What about the “glycan array binding signal (z-score)” value [9] of the same binder?
Answer: -0.193

Question: What about the “glycan array binding signal (z-score)” value [10] of the same binder?
Answer: 1.84

Question: And the “glycan array binding signal (z-score)” value [11]?
Answer: -0.342

Question: What about the “glycan array binding signal (z-score)” value [12] of the same binder?
Answer: -0.636

Question: What about the “glycan array binding signal (z-score)” value [13] of the same binder?
Answer: -0.236

Question: What about the “glycan array binding signal (z-score)” value [14] of the same binder?
Answer: -0.695

Question: And the “glycan array binding signal (z-score)” value [15]?
Answer: -0.378

Question: What about the “glycan array binding signal (z-score)” value [16] of the same binder?
Answer: -0.411

Question: And the “glycan array binding signal (z-score)” value [17]?
Answer: 0.564

Question: What about the “glycan array binding signal (z-score)” value [18] of the same binder?
Answer: -0.517

Question: And the “glycan array binding signal (z-score)” value [19]?
Answer: -0.4

Question: And the “glycan array binding signal (z-score)” value [20]?
Answer: -0.492

Question: And the “glycan array binding signal (z-score)” value [21]?
Answer: -0.507

Question: And the “glycan array binding signal (z-score)” value [22]?
Answer: -0.701

Question: And the “glycan array binding signal (z-score)” value [23]?
Answer: -0.649

Question: What about the “glycan array binding signal (z-score)” value [24] of the same binder?
Answer: -0.498

Question: What about the “glycan array binding signal (z-score)” value [25] of the same binder?
Answer: -0.336

Question: What about the “glycan array binding signal (z-score)” value [26] of the same binder?
Answer: -0.382

Question: What about the “glycan array binding signal (z-score)” value [27] of the same binder?
Answer: -0.076

Question: What about the “glycan array binding signal (z-score)” value [28] of the same binder?
Answer: 0.977

Question: What about the “glycan array binding signal (z-score)” value [29] of the same binder?
Answer: -0.4

Question: What about the “glycan array binding signal (z-score)” value [30] of the same binder?
Answer: 1.39

Question: What about the “glycan array binding signal (z-score)” value [31] of the same binder?
Answer: -0.084

Question: And the “glycan array binding signal (z-score)” value [32]?
Answer: -0.402

Question: What about the “glycan array binding signal (z-score)” value [33] of the same binder?
Answer: -0.437

Question: And the “glycan array binding signal (z-score)” value [34]?
Answer: -0.641

Question: What about the “glycan array binding signal (z-score)” value [35] of the same binder?
Answer: -0.512

Question: What about the “glycan array binding signal (z-score)” value [36] of the same binder?
Answer: -0.572

Question: And the “glycan array binding signal (z-score)” value [37]?
Answer: -0.589

Question: And the “glycan array binding signal (z-score)” value [38]?
Answer: 0.169
